# The supplement of paper PMC8728848
# The list shows a part of the results.
# Experiments:
# Assay in all cases: glycan array binding signal (z-score within array); higher = stronger binding
# Conditions in all cases: glycan notation: IUPAC condensed, linker removed
# [1] = molecular target: Fuc(a1-2)[Gal(a1-3)]Gal(b1-4)GlcNAc(b1-2)Man(a1-3)[Fuc(a1-2)[Gal(a1-3)]Gal(b1-4)GlcNAc(b1-2)Man(a1-6)]Man(b1-4)GlcNAc(b1-4)[Fuc(a1-6)]GlcNAc
# In short: (§1)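 The binding signal is a Z-score computed within each array. Data were drawn from 3228 arrays in the Consortium for Functional Glycomics database, restricted to those with a known protein sequence. Scores were averaged over arrays of the same protein sequence at different concentrations or buffers, and over linkers, and negative values can be taken as non-binding.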
# [2] = molecular target: Fuc(a1-2)[Gal(a1-3)]Gal(b1-4)GlcNAc(b1-3)GalNAc
# In short: as §1
# [3] = molecular target: Fuc(a1-2)[Gal(a1-3)]Gal(b1-4)GlcNAc(b1-6)GalNAc
# In short: as §1
# [4] = molecular target: Fuc(a1-2)[Gal(a1-3)]Gal(b1-4)[Fuc(a1-3)]Glc
# In short: as §1
# [5] = molecular target: Fuc(a1-2)[Gal(a1-3)]Gal(b1-4)[Fuc(a1-3)]GlcNAc
# In short: as §1
# [6] = molecular target: Fuc(a1-2)[Gal(a1-3)]Gal(b1-4)[Fuc(a1-3)]GlcNAc(b1-3)GalNAc
# In short: as §1
# [7] = molecular target: Fuc(a1-2)[Gal(a1-4)]Gal(b1-4)GlcNAc
# In short: as §1
# [8] = molecular target: Fuc(a1-2)[GalNAc(a1-3)]Gal
# In short: as §1
# [9] = molecular target: Fuc(a1-2)[GalNAc(a1-3)]Gal(b1-3)GalNAc(a1-3)[Fuc(a1-2)]Gal(b1-4)GlcNAc
# In short: as §1
# [10] = molecular target: Fuc(a1-2)[GalNAc(a1-3)]Gal(b1-3)GalNAc(b1-3)Gal(a1-4)Gal(b1-4)Glc
# In short: as §1
# [11] = molecular target: Fuc(a1-2)[GalNAc(a1-3)]Gal(b1-3)GlcNAc
# In short: as §1
# [12] = molecular target: Fuc(a1-2)[GalNAc(a1-3)]Gal(b1-3)GlcNAc(b1-2)Man(a1-3)[Fuc(a1-2)[GalNAc(a1-3)]Gal(b1-3)GlcNAc(b1-2)Man(a1-6)]Man(b1-4)GlcNAc(b1-4)GlcNAc
# In short: as §1
# [13] = molecular target: Fuc(a1-2)[GalNAc(a1-3)]Gal(b1-3)GlcNAc(b1-2)Man(a1-3)[Fuc(a1-2)[GalNAc(a1-3)]Gal(b1-3)GlcNAc(b1-2)Man(a1-6)]Man(b1-4)GlcNAc(b1-4)[Fuc(a1-6)]GlcNAc
# In short: as §1
# [14] = molecular target: Fuc(a1-2)[GalNAc(a1-3)]Gal(b1-3)GlcNAc(b1-3)GalNAc
# In short: as §1
# [15] = molecular target: Fuc(a1-2)[GalNAc(a1-3)]Gal(b1-3)GlcNAc(b1-6)GalNAc
# In short: as §1
# [16] = molecular target: Fuc(a1-2)[GalNAc(a1-3)]Gal(b1-4)Glc
# In short: as §1
# [17] = molecular target: Fuc(a1-2)[GalNAc(a1-3)]Gal(b1-4)GlcNAc
# In short: as §1
# [18] = molecular target: Fuc(a1-2)[GalNAc(a1-3)]Gal(b1-4)GlcNAc(b1-2)Man
# In short: as §1
# [19] = molecular target: Fuc(a1-2)[GalNAc(a1-3)]Gal(b1-4)GlcNAc(b1-2)Man(a1-3)[Fuc(a1-2)[GalNAc(a1-3)]Gal(b1-4)GlcNAc(b1-2)Man(a1-6)]Man(b1-4)GlcNAc(b1-4)GlcNAc
# In short: as §1
# [20] = molecular target: Fuc(a1-2)[GalNAc(a1-3)]Gal(b1-4)GlcNAc(b1-2)Man(a1-3)[Fuc(a1-2)[GalNAc(a1-3)]Gal(b1-4)GlcNAc(b1-2)Man(a1-6)]Man(b1-4)GlcNAc(b1-4)[Fuc(a1-6)]GlcNAc
# In short: as §1
# [21] = molecular target: Fuc(a1-2)[GalNAc(a1-3)]Gal(b1-4)GlcNAc(b1-3)Gal(b1-4)GlcNAc
# In short: as §1
# [22] = molecular target: Fuc(a1-2)[GalNAc(a1-3)]Gal(b1-4)GlcNAc(b1-3)Gal(b1-4)GlcNAc(b1-3)Gal(b1-4)GlcNAc
# In short: as §1
# [23] = molecular target: Fuc(a1-2)[GalNAc(a1-3)]Gal(b1-4)GlcNAc(b1-3)GalNAc
# In short: as §1
# [24] = molecular target: Fuc(a1-2)[GalNAc(a1-3)]Gal(b1-4)GlcNAc(b1-3)[Fuc(a1-2)[GalNAc(a1-3)]Gal(b1-4)GlcNAc(b1-6)]GalNAc
# In short: as §1
# [25] = molecular target: Fuc(a1-2)[GalNAc(a1-3)]Gal(b1-4)GlcNAc(b1-6)GalNAc
# In short: as §1
# [26] = molecular target: Fuc(a1-2)[GalNAc(a1-3)]Gal(b1-4)[Fuc(a1-3)]GlcNAc
# In short: as §1
# [27] = molecular target: Fuc(a1-2)[GalNAc(a1-3)]Gal(b1-4)[Fuc(a1-3)]GlcNAc(b1-3)GalNAc
# In short: as §1
# [28] = molecular target: Fuc(a1-2)[GalNAc(a1-4)]Gal(b1-4)GlcNAc
# In short: as §1
# [29] = molecular target: Fuc(a1-2)[GalNAc(b1-3)]Gal
# In short: as §1
# [30] = molecular target: Fuc(a1-3)GlcNAc
# In short: as §1
# [31] = molecular target: Fuc(a1-3)[Gal(b1-4)]Glc6S
# In short: as §1
# [32] = molecular target: Fuc(a1-3)[Gal(b1-4)]GlcNAc
# In short: as §1
# [33] = molecular target: Fuc(a1-3)[Gal(b1-4)]GlcNAc(b1-2)Man
# In short: as §1
# [34] = molecular target: Fuc(a1-3)[Gal(b1-4)]GlcNAc(b1-2)Man(a1-3)[Fuc(a1-3)[Gal(b1-4)]GlcNAc(b1-2)Man(a1-6)]Man(b1-4)GlcNAc(b1-4)GlcNAc
# In short: as §1
# [35] = molecular target: Fuc(a1-3)[Gal(b1-4)]GlcNAc(b1-2)Man(a1-3)[Fuc(a1-3)[Gal(b1-4)]GlcNAc(b1-2)Man(a1-6)]Man(b1-4)GlcNAc(b1-4)[Fuc(a1-6)]GlcNAc
# In short: as §1
# [36] = molecular target: Fuc(a1-3)[Gal(b1-4)]GlcNAc(b1-3)Gal(b1-3)[Fuc(a1-4)]GlcNAc
# In short: as §1
# [37] = molecular target: Fuc(a1-3)[Gal(b1-4)]GlcNAc(b1-3)Gal(b1-4)[Fuc(a1-3)]GlcNAc
# In short: as §1
binder,measurement,setting,value
FliD (Clostridium difficile) (protein) MSSISPVRVTGLSGNFDMEGIIEASMIRDKEKVNKAKQDQQIVKWKQEIYRDIIKESKNLYDKYLNGDSPNSITNKKAYSATRITSSDESIIVAKGSAGAEKINYQFAVSQMAEPAKVTIKLNSSDPIVQQFPPNASGASSLNIGGVNIPISEQDTTSTIVSKINSLCADNDIRASYSEMTGELIISRKQTGSSSDIDLKVIGNDSLAGQIASDNGITFTTDASGTKSAVVYGKNLEADVTDDQGRVTHISKEQNSFKIDNIDYNVNSKGSAKLVSVTDTEEATKNMKAFVDDYNALMDKVYGLVTTKKSKDYPPLTDEQKDDMTTEEIEKWEKKAKEGILRNDDELRAFVEDIQSMFFGDADTIIALRKLGISEHENYNKKGQISFNADTFSKALIDDSDKVYKALAGYSSNYDDKGMFEKLKKIVFEYSGSSASKLTKKAGMENSSSASQNVYSKQIAEQERNISRLVEKMNDKEKRLYAKYSALESLLNKYSSQMNYFSQAQGN,glycan array binding signal (z-score),[1],-0.23
same,glycan array binding signal (z-score),[2],-0.1
same,glycan array binding signal (z-score),[3],-0.207
same,glycan array binding signal (z-score),[4],-0.18
same,glycan array binding signal (z-score),[5],0.013
same,glycan array binding signal (z-score),[6],-0.214
same,glycan array binding signal (z-score),[7],0.139
same,glycan array binding signal (z-score),[8],-0.135
same,glycan array binding signal (z-score),[9],-0.245
same,glycan array binding signal (z-score),[10],-0.257
same,glycan array binding signal (z-score),[11],-0.118
same,glycan array binding signal (z-score),[12],-0.203
same,glycan array binding signal (z-score),[13],-0.178
same,glycan array binding signal (z-score),[14],-0.104
same,glycan array binding signal (z-score),[15],-0.222
same,glycan array binding signal (z-score),[16],-0.242
same,glycan array binding signal (z-score),[17],-0.235
same,glycan array binding signal (z-score),[18],-0.196
same,glycan array binding signal (z-score),[19],-0.017
same,glycan array binding signal (z-score),[20],0.104
same,glycan array binding signal (z-score),[21],-0.244
same,glycan array binding signal (z-score),[22],0.128
same,glycan array binding signal (z-score),[23],-0.185
same,glycan array binding signal (z-score),[24],-0.234
same,glycan array binding signal (z-score),[25],-0.248
same,glycan array binding signal (z-score),[26],0.061
same,glycan array binding signal (z-score),[27],-0.115
same,glycan array binding signal (z-score),[28],-0.178
same,glycan array binding signal (z-score),[29],-0.226
same,glycan array binding signal (z-score),[30],-0.146
same,glycan array binding signal (z-score),[31],-0.046
same,glycan array binding signal (z-score),[32],-0.054
same,glycan array binding signal (z-score),[33],-0.147
same,glycan array binding signal (z-score),[34],-0.161
same,glycan array binding signal (z-score),[35],-0.161
same,glycan array binding signal (z-score),[36],-0.182
same,glycan array binding signal (z-score),[37],0.072
